Laboratory results from the supplement of paper PMC3334620.
The full ranking holds about 33,000 sequences; the median of “E-score (-0.5 to 0.5)” is about -0.012, and the highest 2% start at about 0.29. Some of the results follow.

molecular target: T1, Ybr033w (UniProt P38073); experiment: PBM E-score (8-mer binding enrichment) (E-score (-0.5 to 0.5)); higher = stronger / more preferred TF binding; most listed sequences are background and not binding sites; conditions: protein concentration: 200 nM; construct: GST-full length
T1 sequence: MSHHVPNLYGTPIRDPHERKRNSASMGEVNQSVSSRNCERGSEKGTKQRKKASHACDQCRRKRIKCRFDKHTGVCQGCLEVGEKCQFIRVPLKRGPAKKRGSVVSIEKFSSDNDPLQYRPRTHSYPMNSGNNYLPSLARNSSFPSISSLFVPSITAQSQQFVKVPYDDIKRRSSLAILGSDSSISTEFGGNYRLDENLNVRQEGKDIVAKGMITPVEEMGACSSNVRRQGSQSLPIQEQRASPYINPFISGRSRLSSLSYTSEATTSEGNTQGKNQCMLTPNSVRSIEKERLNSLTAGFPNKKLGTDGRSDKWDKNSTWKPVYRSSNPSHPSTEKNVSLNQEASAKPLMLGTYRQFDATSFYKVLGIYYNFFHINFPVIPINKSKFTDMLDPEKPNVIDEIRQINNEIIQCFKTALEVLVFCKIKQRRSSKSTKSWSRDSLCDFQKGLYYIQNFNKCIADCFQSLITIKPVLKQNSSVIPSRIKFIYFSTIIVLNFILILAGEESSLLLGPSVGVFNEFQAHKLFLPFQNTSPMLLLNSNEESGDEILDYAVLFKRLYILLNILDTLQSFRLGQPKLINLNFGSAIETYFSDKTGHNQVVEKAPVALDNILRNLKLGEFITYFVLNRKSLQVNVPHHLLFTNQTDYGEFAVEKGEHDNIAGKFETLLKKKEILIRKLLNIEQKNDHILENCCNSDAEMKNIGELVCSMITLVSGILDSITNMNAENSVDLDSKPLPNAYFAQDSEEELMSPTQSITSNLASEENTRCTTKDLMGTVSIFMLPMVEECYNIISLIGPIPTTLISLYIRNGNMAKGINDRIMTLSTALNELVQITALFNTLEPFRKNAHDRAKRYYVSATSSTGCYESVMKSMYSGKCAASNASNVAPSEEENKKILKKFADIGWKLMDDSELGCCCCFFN
Summary of the method: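 Universal all-10-mer Agilent arrays, fresh or stripped once, were converted to double-stranded form by primer extension. GST-tagged yeast transcription factors from PURExpress in vitro transcription/translation, full-length or DNA-binding domain only, were applied at about 100-200 nM and detected with fluorescent anti-GST. After masliner normalisation, the Universal PBM Analysis Suite scored each ungapped eight-base word together with its reverse complement by E-score.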

Row | Sequence | PBM E-score
1 | CTTCCTAA | 0.111
2 | TAATCCAA | 0.279
3 | CCCGAGTA | 0.139
4 | CCCTCTCA | -0.345
5 | ACTCGAAG | -0.242
6 | CCCCAAAC | -0.101
7 | ATACTTTC | 0.177
8 | GCCACGAA | -0.226
9 | ACTCTGTC | -0.0827
10 | CTTGATAA | 0.267
11 | GTCAGCAC | -0.0443
12 | CGCTCGCA | 0.0333
13 | AAAACAGA | 0.202
14 | AATCACTC | 0.0577
15 | CATTCTAA | 0.165
16 | ATCAGAGA | 0.129
17 | ACGCACCA | 0.00766
18 | TACTATCA | 0.206
19 | GGGGCAGA | -0.101
20 | GTTTCGCA | -0.0794
21 | CATATACC | -0.165
22 | ACCCGCGT | -0.0336

Row | Sequence | PBM E-score
23 | ACTGAGTG | 0.159
24 | GAAGTGTC | -0.0303
25 | AGGTTTCA | 0.05
26 | ACTAAGCA | 0.122
27 | CCTGCTGC | -0.0853
28 | AGATAGCA | 0.0858
29 | ACGTGTTA | 0.13
30 | AGCGTTAA | 0.0525
31 | AGAAGGAA | 0.0518
32 | ATTGTTCA | 0.207
33 | GACTTTAC | 0.03
34 | CTAGGCGA | 0.00833
35 | ACGGGAAC | -0.0305
36 | CGATAGTA | 0.0142
37 | CTACATGA | -0.00626
38 | CTGTTTGC | 0.0774
39 | TAGCGCGA | 0.0794
40 | AGGCCACG | -0.207
41 | CGATTGAA | 0.0157
42 | ACAAACAG | 0.0852
43 | TCTGGGCA | -0.0147
44 | AGCCGACT | -0.204

Row | Sequence | PBM E-score
45 | CCCGGCCA | -0.284
46 | CGCGCCGA | -0.154
47 | TGAAGACA | -0.169
48 | GATAAGAA | 0.0799
49 | CGAGCATC | -0.121
50 | AGCCGTAC | -0.0294
51 | AGAACGAA | 0.161
52 | ACGTCCAC | -0.105
53 | AGCCACCC | -0.296
54 | ACCGAAAT | 0.04
55 | AAAGGTAT | 0.125
56 | AGCAGTCG | -0.0427
57 | AGCATAAA | 0.141
58 | GAACCAAA | 0.171
59 | GCTGCGCC | -0.166
60 | CAACTAAG | 0.121
61 | CAAGTCTC | -0.0267
62 | CAGCTGCA | -0.167
63 | AGCCCTTC | -0.128
64 | TTACGTAA | -0.0918
65 | AGTAGGAC | -0.0355
66 | ACTGATAG | -0.0225

Row | Sequence | PBM E-score
67 | ACGTTAAG | 0.0414
68 | TGCCACCA | -0.203
69 | CGGATACC | -0.0794
70 | ACCTAAGC | 0.0193
71 | CGTTCTCC | -0.0553
72 | AGATCAGA | -0.114
73 | GGTGCTCA | -0.00859
74 | CGGACCGC | -0.22
75 | AATCTAGA | 0.128
76 | AGAAGCAC | -0.0459
77 | ATCTAACG | 0.105
78 | AGCTAGTC | 0.0503
79 | CATCTCGC | -0.134
80 | AACTGTCA | 0.0683
81 | ACCTGCAG | -0.308
82 | AGTTGCGA | 0.206
83 | CCCTCGAG | -0.159
84 | AAGACGTC | -0.16
85 | CCTATGAG | 0.00504
86 | AAAAACGC | 0.182
